# Measurements as given in PubChem BioAssay AID445 (National Center for Advancing Translational Sciences (NCATS), 2006).
# About 40 (0.04%) of roughly 110,000 compounds were called active. Inconclusive results, whose numbers are uncertain, are shown with a selection of clear calls. Calls come from the whole dose curve; as a rule, active = well fitted curve in the direction sought with a large enough effect in the signal ratio (not every such curve was filed as active); inconclusive = small, poorly fitted or top-dose-only effect, or a change in a side signal; inactive = flat fitted curve, though single readings scatter; the % refers to the signal ratio. Potencies of inconclusive entries are doubtful fits and often do not repeat.
# Assay: IkB Signaling;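 for IkBa stabilization activation: 0% = basal untreated cells and 100% = reference inhibitor full response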
# Settings: ABC-DLBCL IkBa-CBG/CBR dual luciferase ratio (green luciferase fused to IkBa over red control in OCI-Ly3 lymphoma cells), 4 h; IkBa stabilization activation: at 57.1 µM (top of the series), scaled: untreated 0%, proteasome inhibitor 100% unless noted
# How it was run: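 Curves were fitted separately to fusion (green), unfused (red) and ratio luminescence, then classed by r2, magnitude and activity. Cells: OCI-Ly3, 4 h compound plus doxycycline at 37C; 10 uM MG-132 defined full response.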
# Potency is the fitted concentration of half-maximal effect.
SMILES,IkBa stabilization activation,Potency
CCc1ccc(NS(=O)(=O)c2ccc3[nH]cc(C(=O)NCc4ccc(C)cc4)c(=O)c3c2)cc1,inconclusive: 6.92% [signal inhibitor],–
CCOc1ccc(-n2c(=O)c3c4c(sc3n(Cc3cccc(C)c3)c2=O)CCCC4)cc1,inconclusive: 2.44% [signal inhibitor],–
COC(=O)CSc1nc2ccc(NC(C)=O)cc2s1,inconclusive: 6.72% [signal inhibitor],–
CCOC(=O)C1CCCN(C(=O)c2cc3c(-c4cccc(OC)c4)nn(C)c3s2)C1 (configuration not stated),inconclusive: 2.66% [signal inhibitor],–
CCc1ccc(NCc2cc3cc4c(cc3n(CC(=O)Nc3ccccc3Cl)c2=O)OCO4)cc1,inactive: 4.4%,–
COc1ccc(OC)c(NC(=O)c2c(NCc3ccc(OC)c(OC)c3)sc3c2CCC3)c1,inconclusive: 5.94% [signal inhibitor],–
O=C(Nc1ccc(Br)cc1F)C(NS(=O)(=O)c1cccc2nsnc12)c1ccccc1 (configuration not stated),inconclusive: 2.6% [signal inhibitor],–
Cc1csc2nc(CSc3ccc(Cl)cc3)cn12,inconclusive: 6.46% [signal inhibitor],–
COc1ccc(NC(=O)Cn2c(=O)n(CC(=O)NCCc3ccccc3)c(=O)c3ccccc32)cc1,inactive: 2.48%,–
CCC1CCc2c(sc(NC(=O)c3ccoc3C)c2C(N)=O)C1 (configuration not stated),inactive: -0.219%,–
COc1ccc(CNC(=O)c2cc3c(-c4ccccc4F)nn(C)c3s2)cc1,inconclusive: 1.61% [signal inhibitor],–
COc1ccc2nc3sc(C(=O)NCc4cccs4)c(N)c3cc2c1,inconclusive: 3.47% [signal inhibitor],–
CC/C(=C(/CC)c1ccc(O)cc1)c1ccc(O)cc1,–,"inconclusive: 15.8 µM [rising, partial curve]"
Cc1nc2ccccc2c2oc(C(=O)NCC3CCCO3)cc12 (configuration not stated),inconclusive: -2.35% [signal inhibitor],–
O=C(c1cc2nc(-c3ccccc3)cc(C(F)(F)F)n2n1)N1CCCC1,inactive: -0.346%,–
CCN(CC)C(=O)c1cnn(-c2ccc(F)cc2)c1-n1cccc1,inconclusive: 1.95% [signal inhibitor],–
Cc1ccc(CNC(=O)c2oc3ccc(S(=O)(=O)N4CCC5(CC4)OCCO5)cc3c2C)cc1,inconclusive: 2.49% [signal inhibitor],–
CCNC(=O)c1c(C)oc2ncn(C)c(=O)c12,inconclusive: -1.66% [signal inhibitor],–
Cc1ccc(N2CCN(C(=O)c3ccccc3Br)CC2)c(C)c1,inconclusive: 6.66% [signal inhibitor],–
CCc1nn(CC(=O)N(CC)Cc2ccccc2)c(=O)c2cc3occc3n12,inactive: -0.0473%,–
CC1CCCCN1S(=O)(=O)c1cc2c(=O)nc3ccccn3c2cc1Cl (configuration not stated),inactive: -0.877%,–
Cc1ccc2c(c1)cc1c(=O)n(Cc3ccc(Cl)cc3)nc(C)n12,inconclusive: 2.52% [signal inhibitor],–
COc1cccc(-c2cc(C(=O)Nc3ccc(Br)c(C)c3)[nH]n2)c1,inconclusive: 3.31% [signal inhibitor],–
COc1ccc(CN(Cc2ccco2)C(=O)c2ccccc2F)cc1,inconclusive: -0.684% [signal inhibitor],–

SMILES,IkBa stabilization activation,Potency
CC(C)CC(=O)Nc1ccc2oc(-c3cccnc3)nc2c1,inactive: -1.98%,–
Cc1cccc(C)c1NS(=O)(=O)c1ccc2c(c1)[C@H]1C=CC[C@H]1[C@@H](c1ccc(Cl)cc1)N2,inconclusive: 12% [signal inhibitor],–
CCn1c(CC2C(=O)Nc3ccccc32)nc2ccccc2c1=O (configuration not stated),inconclusive: 0.122% [signal inhibitor],–
CCOC(=O)c1cccc(NC(=O)CSc2nnc(C3CCCCC3)n2CC)c1,inactive: 3.26%,–
CCc1cc2c(N3CCCCC3)ncnc2s1,inconclusive: 0.772% [signal inhibitor],–
Cc1ccccc1Cn1cnc2c(nnn2Cc2ccc(F)cc2)c1=O,inactive: -1.04%,–
COc1cc(-c2noc(-c3ccc(N(C)C)c([N+](=O)[O-])c3)n2)cc(OC)c1OC,inactive: -1.67%,–
Cc1c(C(=O)NCc2ccccc2)sc2nc[nH]c(=O)c12,inactive: -2.69%,–
Cc1ccccc1Cn1c2ccccc2c2cnn(CC(=O)NCCCc3ccccc3)c(=O)c21,inconclusive: 0.441% [signal inhibitor],–
CCOc1ccc(-c2c(C)nn3c(C)c(C(=O)NCCc4ccccc4)cnc23)cc1OCC,inactive: -1.72%,–
COc1cccc2c1cc1c(=O)n(CC(=O)O)nc(C)n12,inactive: -1.45%,–
CCOc1ccc(Nc2sc(C(=O)c3ccc4c(c3)OCO4)c(N)c2S(=O)(=O)c2ccc(C)cc2)cc1,inactive: -2.13%,–
COc1ccccc1CNC(=O)CSc1cc(=O)n(C)c2ccccc12,inconclusive: 7.8% [signal inhibitor],–
Cn1nc(C(=O)N2CCN(c3ccc(Cl)cc3)CC2)c2c1-c1ccccc1S(=O)(=O)C2,inconclusive: -1.82% [signal inhibitor],–
CCOC(=O)C1CCN(c2cc(C)nc3c(-c4ccccc4OC)c(C)nn23)CC1,inactive: 21%,–
COc1cccc(-c2nc(NC3CCNCC3)c3ccccc3n2)c1,"inactive: -2.17% [at 11.4 µM, scaled: untreated 0%, proteasome inhibitor 100%]",–
CCS(=O)(=O)NCCCCc1ccccc1,inactive: 0.533%,–
Cc1ccc(-c2nnc(SCC(=O)N3CCCc4ccccc43)o2)cc1,inconclusive: 1.94% [signal inhibitor],–
CCn1cc(C(=O)NCc2ccc(Cl)cc2)c(=O)c2cc(S(=O)(=O)N3CCOCC3)ccc21,inconclusive: 5.91% [signal inhibitor],–
Cc1ccc(-c2nnc(-c3ccc4ccccc4c3)o2)cc1,"inactive: 21.6% [at 11.4 µM, scaled: untreated 0%, proteasome inhibitor 100%]",–
COc1cc(NC(=O)c2ccc3c(Cl)c4c(nc3c2)CCC4)cc(OC)c1OC,inconclusive: 0.476% [signal inhibitor],–
CN(C)c1ccc(N/C=C/C(=O)c2ccc(F)cc2)cc1,inactive: 4.62%,–
Cc1ccc(C(=O)Nc2ccc(S(=O)(=O)N3CCc4ccccc43)cc2)o1,inconclusive: 4.82% [signal inhibitor],–
O=C(COc1ccc([N+](=O)[O-])cc1)N1CCC(c2nc3ccccc3s2)CC1,inconclusive: 1.27% [signal inhibitor],–

SMILES,IkBa stabilization activation,Potency
CCc1ccc(CNC(=O)C2CCN(c3nnc(C)c4c(C)n(-c5ccc(C)cc5)nc34)CC2)cc1,inconclusive: -0.115% [signal inhibitor],–
CCOc1ccc(N(C(C)C(=O)NCCSc2ccc(Cl)cc2)S(C)(=O)=O)cc1 (configuration not stated),inconclusive: 18% [signal inhibitor],–
CCCCN1c2ccccc2N(CCCO)c2cc(C)nnc21,inactive: -1.69%,–
O=C(Nc1ccc(Nc2ccc3c(c2)C(=O)c2ccccc2C3=O)c2c1C(=O)c1ccccc1C2=O)c1ccccc1,"inactive: -1.48% [at 11.4 µM, scaled: untreated 0%, proteasome inhibitor 100%]",–
COc1cc(-c2ccc(=O)[nH]n2)ccc1OC(F)F,inactive,–
COc1cc(OC)cc(C(=O)Nc2ccc(-c3nc4ccccc4s3)c(C)c2)c1,inactive: -2.52%,–
Cc1ccc(N2C(=O)CS(=O)(=O)C23C(=O)N(Cc2ccccc2C)c2ccccc23)cc1Cl (configuration not stated),inconclusive: -1.47% [signal inhibitor],–
O=C1C(C=Nc2ccccc2O)=C(O)c2ccccc21,–,"inconclusive: 25.1 µM [signal inhibitor, partial curve]"
CCCc1ccc(Oc2cn[nH]c2-c2ccc(O)c(C)c2O)cc1,inconclusive: -3.14% [signal inhibitor],–
Cc1sc2nc(CN(Cc3cccs3)C(=O)C3CC3)[nH]c(=O)c2c1C,inconclusive: 2.87% [signal inhibitor],–
Cc1nc2ccn(Cc3ccco3)c(=O)c2cc1C(=O)Nc1ccc(F)cc1,inconclusive: 2.83% [signal inhibitor],–
CSCC[C@H](NC(=O)OC(C)(C)C)c1nnc(SCC(N)=O)o1,inactive: 1.27%,–
Cc1ccc(OCC(=O)Nc2ccc3c(c2)sc(=O)n3C)cc1,inconclusive: 7.27% [signal inhibitor],–
COc1ccc(-n2c(=O)[nH]c3cc(C(=O)NCCc4ccc(Cl)cc4)ccc3c2=O)cc1OC,–,inconclusive: 39.8 µM [signal inhibitor]
CNC(=O)[C@H]1O[C@H](n2cnc3c(NCc4cccc(I)c4)nc(Cl)nc32)[C@@H](O)[C@@H]1O,inconclusive: 0.69% [signal inhibitor],–
COc1ccc(NC(=O)C(NC(=O)C2CCC(C)CC2)C(C)C)cc1 (configuration not stated),inconclusive: 3.15% [signal inhibitor],–
Cc1ccc2c(=O)c(C(=O)c3ccccc3)cn(CC(=O)Nc3ccc(C)c(Cl)c3)c2n1,inactive: -0.33%,–
CCOC(=O)c1cc(NC(=O)NCc2ccco2)c(C)nc1C,inactive: -0.505%,–
Cc1nn(C)c2c1c(C(F)(F)F)cc(=O)n2C(C)C(=O)NCCC(C)C (configuration not stated),inconclusive: -0.0855% [signal inhibitor],–
COc1ccccc1NC(=O)CNC(=O)c1ccccc1,–,"inconclusive: 25.1 µM [signal inhibitor, partial curve]"
Cc1ccc(NC(=O)c2nnn(Cc3cccc(C(F)(F)F)c3)c2N)c(C)c1,inconclusive: -3.81% [signal inhibitor],–
COc1cccc(Cn2ccn(-c3ccc(F)cc3)c(=O)c2=O)c1,inactive: 0.483%,–
Cc1ccnc(NC(=O)CCCOc2cc(=O)n(C)c3ccccc23)c1,inconclusive: -4.24% [signal inhibitor],–
COc1cc(NC(=O)CSc2nc(-c3ccc(C(C)C)cc3)no2)cc(OC)c1,inconclusive: -1.14% [signal inhibitor],–
